Data published in publication PMC4336329 (PLoS ONE, 2015).
About 14,000 (4.5%) of roughly 310,000 compounds showed an effect of 50% or more. The effect is printed as a negative number. Some of the results follow.

Target: human ether-à-go-go-related gene (hERG) potassium channel (human, UniProt Q12809)
Assay: primary screen, population patch clamp on CHO cells stably expressing hERG
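Further: peak tail current of the secondary pulse compared with the same well before compound.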

human ether-à-go-go-related gene (hERG) potassium channel, sequence (Q12809 whole entry, looked up): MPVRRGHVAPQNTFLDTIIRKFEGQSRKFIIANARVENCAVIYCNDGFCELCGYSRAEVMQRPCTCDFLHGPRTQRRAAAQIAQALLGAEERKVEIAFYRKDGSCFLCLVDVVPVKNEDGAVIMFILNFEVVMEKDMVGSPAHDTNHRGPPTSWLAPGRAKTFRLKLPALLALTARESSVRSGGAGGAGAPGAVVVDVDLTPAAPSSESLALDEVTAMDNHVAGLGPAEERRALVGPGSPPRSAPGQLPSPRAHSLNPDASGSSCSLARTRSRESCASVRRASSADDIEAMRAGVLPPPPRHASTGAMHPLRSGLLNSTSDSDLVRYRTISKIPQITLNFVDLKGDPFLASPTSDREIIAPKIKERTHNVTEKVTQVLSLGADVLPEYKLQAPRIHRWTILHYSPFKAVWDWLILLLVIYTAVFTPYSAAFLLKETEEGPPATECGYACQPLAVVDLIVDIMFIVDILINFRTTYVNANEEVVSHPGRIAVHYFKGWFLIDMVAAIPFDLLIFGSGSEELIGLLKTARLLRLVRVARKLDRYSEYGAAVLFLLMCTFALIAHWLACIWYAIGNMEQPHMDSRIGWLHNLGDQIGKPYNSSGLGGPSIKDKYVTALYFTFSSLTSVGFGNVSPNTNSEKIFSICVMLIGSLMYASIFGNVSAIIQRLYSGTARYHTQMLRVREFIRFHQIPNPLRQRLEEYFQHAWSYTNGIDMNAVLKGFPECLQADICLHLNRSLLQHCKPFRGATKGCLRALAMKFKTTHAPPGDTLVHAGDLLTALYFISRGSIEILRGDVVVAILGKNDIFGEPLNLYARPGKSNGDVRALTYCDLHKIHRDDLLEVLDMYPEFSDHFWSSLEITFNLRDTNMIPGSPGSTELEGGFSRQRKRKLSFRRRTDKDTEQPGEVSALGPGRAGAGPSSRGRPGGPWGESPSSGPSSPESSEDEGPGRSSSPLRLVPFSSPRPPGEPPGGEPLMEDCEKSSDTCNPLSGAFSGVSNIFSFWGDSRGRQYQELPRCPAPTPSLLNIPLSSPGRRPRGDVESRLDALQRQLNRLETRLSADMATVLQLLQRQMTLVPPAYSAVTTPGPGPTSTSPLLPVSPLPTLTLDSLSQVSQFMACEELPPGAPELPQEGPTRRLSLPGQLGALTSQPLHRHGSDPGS

SMILES | hERG current change (%, negative = inhibition) at 10uM [%]
CC(NC(=O)Nc1ccccc1)C(c1cccs1)N1CCN(c2ccccc2)CC1 (centres unmarked) | 5.89
O=C(C1=C[C@@H](c2coc3ccccc3c2=O)C[C@@H](OCc2ccc(CO)cc2)O1)N1CCN(Cc2ccccc2)CC1 | -48
COCCNC(=O)C(c1ccc(Cl)cc1)N(CCOC)C(=O)CCC(=O)Nc1ccccn1 (centres unmarked) | -1.76
O=C(Nn1c(SCc2cccc([N+](=O)[O-])c2)nc2ccccc2c1=O)c1ccccc1 | -1.31
S=C(NCCN1CCOCC1)Nc1cccc(Cl)c1 | -10.9
COc1ccc(/C=C/C(=O)Oc2ccc(/C=N/NC(=O)c3ccncc3)cc2)cc1 | -7.6
Cn1c(=O)c(S(=O)C2CCCCC2)c(O)c2ccccc21 (centres unmarked) | 7.79
CC1CCN(S(=O)(=O)c2cc(F)ccc2CN2C(=O)c3cccnc3C2=O)CC1 | -60.4
Cc1ccc(Cn2nc(C)c(/C=N/NC(=O)c3cccnc3)c2C)cc1 | -4.88
Cc1ncc(CN2CCCC(CCC(=O)NCc3ccccc3F)C2)s1 (centres unmarked) | 17.8
COc1ccc(CNC(=S)Nc2cccc(C)c2C)cc1 | -1.56
CC1OC(OCC2OC(Oc3c(-c4ccc(O)cc4)oc4cc(O)cc(O)c4c3=O)C(O)C(O)C2O)C(O)C(O)C1O (centres unmarked) | 13.7
COc1ccccc1N1CCN(C(=O)c2ccc(Cl)c(S(=O)(=O)NCc3ccco3)c2)CC1 | -14.2
COC(=O)C1=C(c2ccc(F)cc2F)C[C@@H]2CC[C@H]1N2C | 8.44
Fc1cccc(CN2CCN(c3ncccn3)CC2)c1 | -6.63
O=C1OC(N2CCN(Cc3ccccc3)CC2)c2ccccc21 (centres unmarked) | 15.4
COc1cc(C2C(C(C)=O)=C(O)C(=O)N2CCN2CCOCC2)ccc1O (centres unmarked) | 4.41
Cc1ccc(S(=O)(=O)c2nnn3c2nc(N2CCC(C(N)=O)CC2)c2ccccc23)cc1 | -0.198
N#C/C(=C\c1ccc(OCCN2CCOCC2)cc1)C(=O)Nc1ccccc1 | -5.42
COc1ccc(C(=O)NC2=C(C#N)CCC2)cc1OC | 9.08
O=C(NNS(=O)(=O)c1ccccc1F)c1cccc(S(=O)(=O)N2CCOCC2)c1 | -4.04
CC[C@@H](C)C(N)c1cn([C@@H](CCC(=O)O)C(=O)N2CCNCC2)nn1.Cl (some centres unmarked) | 9.17

SMILES | hERG current change (%, negative = inhibition) at 10uM [%]
COc1cccc(NC(=O)CN(C)C(=O)CCCNC(=O)c2ccc(Cl)cc2)c1 | -46.5
CN(C)CCN1C(=O)c2ccccc2C1=O | 21.7
COc1ccc(SCCc2ccncc2)cc1.Cl | -7.45
CCOC(=O)C1(CCOC)CCN(Cc2ccc(COC)o2)CC1 | 32.9
COc1ccc(N2CCN(C(=O)c3ccc(CNc4c(N5CCOCC5)c(=O)c4=O)cc3)CC2)cc1 | -0.0849
COc1ccc2cc(C(=O)NCc3ccccc3)[nH]c2c1.Cl | 21.2
COc1ccc2oc(=O)c(C(=O)NCc3ccccn3)cc2c1 | 3.99
Cc1ccccc1N1CCN(C(=O)c2ccccc2NC(=O)c2ccccc2C(=O)O)CC1 | 6.78
Cc1sc2ncnc(N3CCC(C(=O)N(CC(C)C)c4nc5ccccc5s4)CC3)c2c1C | -14.1
CCOC(=O)c1ccc(NC2c3ccccc3C(=O)N2c2ccc(C)cn2)cc1 (centres unmarked) | 6.97
O=C(Cn1cc2c(n1)CCCCC2)N1CCc2ccccc2C1 | -3.95
CCC1Sc2ccccc2N(CC(=O)NC2CC2)C1=O (centres unmarked) | 7.59
O=c1c2cc(Br)ccc2[nH]c(=S)n1-c1ccccc1 | 27.5
CC(C)(C)NC(=O)C(c1cccs1)N(Cc1ccco1)C(=O)c1csnn1 (centres unmarked) | -1.46
Brc1ccc(-c2csc(N3CCOCC3)n2)cc1 | 20.7
O=C(O)CCCNc1n[nH]c(=O)[nH]c1=O | 29.3
CC(=O)Nc1ccc(S(=O)(=O)NCCSCc2ccc(Cl)cc2Cl)cc1 | 7.59
Cc1cc(CN(C)C(=O)c2cc(COc3ccc(C)c(C)c3)on2)n[nH]1 | -43.8
CCOP(=O)(C(NC(=O)c1ccccc1Cl)=C(Cl)Cl)c1ccccc1 (centres unmarked) | 4.09
CCCCn1c(-c2cccc(Br)c2)nc2cc3[nH]c(=O)c(C(C)C)nc3cc21 | 4.08
CCOC(=O)N1CCN(c2c(NCc3ccc(N(C)C)cc3)c(=O)c2=O)CC1 | 9.96
CCOC(=O)c1nnc(-c2ccccc2)nc1N1CCSCC1 | -31
